In the supplement of paper PMC10369915:
The other results are listed elsewhere or left out. No stated cut-off is given here; in the data, active = 3.2 or more and inactive = the rest. Most of these values are background signal.

B1: AR_Y858 (peptide)
chain: CSRRFYQLTKL
B2: AR_Y858_R855K (peptide)
chain: CSKRFYQLTKL
B3: AR_Y916 (peptide)
chain: KVKPIYFHTQG
B4: AR_Y916_F917L (peptide)
chain: KVKPIYLHTQG
B5: AR_Y916_H918R (peptide)
chain: KVKPIYFRTQG
B6: AR_Y916_P914S (peptide)
chain: KVKSIYFHTQG
B7: AR_Y916_V912L (peptide)
chain: KLKPIYFHTQG
B8: ARAP1_Y359 (peptide)
chain: TDHLRYFDSNK
B9: ARAP1_Y359_R358Q (peptide)
chain: TDHLQYFDSNK
B10: ARCN1_Y310_K309N (peptide)
chain: ISDDNYGRIRL
B11: ARFGAP3_Y356 (peptide)
chain: TSSSSYFDEPV
B12: ARFGAP3_Y356_S355R (peptide)
chain: TSSSRYFDEPV
B13: ARFGAP3_Y473 (peptide)
chain: QPAGNYSLSSV
B14: ARFGEF2_Y797_K794E (peptide)
chain: MTEEQYIKMNR
B15: ARFGEF2_Y797_R802Q (peptide)
chain: MTKEQYIKMNQ
B16: ARHGAP1_Y365 (peptide)
chain: LPEENYQVLRF
B17: ARHGEF7_Y785 (peptide)
chain: WTAHSYRMGST
B18: ARHGEF7_Y785_T790A (peptide)
chain: WTAHSYRMGSA
B19: ARID1B_Y1091_V1092I (peptide)
chain: DLFRLYICVKE
B20: ARMC9_Y107_L108F (peptide)
chain: IHFAIYFLKYS
B21: ARMC9_Y107_L108F_YF (peptide)
chain: IHFAIYFLKFS
B22: ARSB_Y165 (peptide)
chain: RGFDTYFGYLL
B23: ARVCF_Y901 (peptide)
chain: LGPDGYSTVDR
B24: ASAH1_Y43 (peptide)
chain: PSGPTYRGAVP
B25: ASAH1_Y43_T42M (peptide)
chain: PSGPMYRGAVP
B26: ASB10_Y457 (peptide)
chain: PRLLRYLQLDF
B27: ASB2_Y162_P160S (peptide)
chain: RETSLYKACER
B28: ASCC1_Y36 (peptide)
chain: DEEDFYQGSME
B29: ASCC1_Y36_D34N (peptide)
chain: DEENFYQGSME
B30: ASIC2_Y357 (peptide)
chain: EKDSNYCLCRT
B31: ASL_Y375_K380E (peptide)
chain: ATDLAYYLVRE
B32: ASNS_Y555 (peptide)
chain: RTLTHYKSAVK
B33: ASPA_Y64 (peptide)
chain: KKCTRYIDCDL
B34: ASPA_Y64_D68A (peptide)
chain: KKCTRYIDCAL
B35: ASS1_Y113 (peptide)
chain: REGAKYVSHGA
B36: ASS1_Y113_A111D (peptide)
chain: REGDKYVSHGA
B37: ASS1_Y113_A118T (peptide)
chain: REGAKYVSHGT

biological target: SHP2 C-SH2 domain E139D; test: enrichment score (SH2-bound / input frequency) (ratio); bacterial display of known human phosphotyrosine sites (pTyr-Var adds point mutants) read by sequencing; higher = stronger binding; tyrosines were phosphorylated by kinases first; settings: peptide library: pTyr-Var
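Further: displayed peptides selected on beads carrying the immobilized SH2 domain, with library peptides lacking any tyrosine serving as negative controls.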

| Binder | enrichment score |
| --- | --- |
| B1 | inactive: 0.322 |
| B2 | inactive: 0.724 |
| B3 | active: 3.24 |
| B4 | active: 3.46 |
| B5 | inactive: 3.08 |
| B6 | inactive: 0.797 |
| B7 | active: 3.74 |
| B8 | inactive: 0.929 |
| B9 | inactive: 1.12 |
| B10 | inactive: 0.678 |
| B11 | inactive: 0.678 |
| B12 | inactive: 0.652 |
| B13 | inactive: 0.74 |
| B14 | inactive: 0.705 |
| B15 | inactive: 0.768 |
| B16 | inactive: 0.798 |
| B17 | inactive: 0.76 |
| B18 | inactive: 1.02 |
| B19 | inactive: 0.631 |

| Binder | enrichment score |
| --- | --- |
| B20 | active: 3.37 |
| B21 | inactive: 2.98 |
| B22 | inactive: 0.871 |
| B23 | inactive: 0.618 |
| B24 | inactive: 0.605 |
| B25 | inactive: 0.737 |
| B26 | active: 3.37 |
| B27 | inactive: 0.615 |
| B28 | inactive: 0.712 |
| B29 | inactive: 0.81 |
| B30 | inactive: 0.638 |
| B31 | inactive: 0.774 |
| B32 | inactive: 0.557 |
| B33 | inactive: 0.897 |
| B34 | inactive: 1.16 |
| B35 | inactive: 0.745 |
| B36 | inactive: 0.665 |
| B37 | inactive: 0.495 |

biological target: SHP2 C-SH2 domain wild-type; test: as above; settings: peptide library: pTyr-Var

| Binder | enrichment score |
| --- | --- |
| B1 | inactive: 0.356 |
| B2 | inactive: 1.02 |
| B3 | inactive: 2.62 |
| B4 | inactive: 2.88 |
| B5 | inactive: 2.12 |
| B6 | inactive: 0.709 |
| B7 | active: 3.34 |
| B8 | inactive: 0.911 |
| B9 | inactive: 0.762 |
| B10 | inactive: 0.838 |
| B11 | inactive: 0.541 |
| B12 | inactive: 0.343 |
| B13 | inactive: 0.678 |
| B14 | inactive: 0.763 |
| B15 | inactive: 0.74 |
| B16 | inactive: 1.24 |
| B17 | inactive: 0.756 |
| B18 | inactive: 1 |
| B19 | inactive: 1.04 |

| Binder | enrichment score |
| --- | --- |
| B20 | inactive: 2.74 |
| B21 | inactive: 2.95 |
| B22 | inactive: 1.25 |
| B23 | inactive: 0.742 |
| B24 | inactive: 0.695 |
| B25 | inactive: 0.665 |
| B26 | active: 3.66 |
| B27 | inactive: 0.711 |
| B28 | inactive: 1.11 |
| B29 | inactive: 0.724 |
| B30 | inactive: 0.545 |
| B31 | inactive: 1.14 |
| B32 | inactive: 0.622 |
| B33 | inactive: 0.838 |
| B34 | inactive: 1.46 |
| B35 | inactive: 0.506 |
| B36 | inactive: 0.328 |
| B37 | inactive: 0.433 |

biological target: SHP2 N-SH2 domain L43F; test: as above; settings: peptide library: pTyr-Var

| Binder | enrichment score |
| --- | --- |
| B1 | inactive: 0.347 |
| B2 | inactive: 0.589 |
| B3 | inactive: 2.98 |
| B4 | inactive: 3.18 |
| B5 | inactive: 2.4 |
| B6 | inactive: 0.756 |
| B7 | active: 3.66 |
| B8 | inactive: 1.22 |
| B9 | inactive: 0.902 |
| B10 | inactive: 0.685 |
| B11 | inactive: 0.529 |
| B12 | inactive: 0.77 |
| B13 | inactive: 0.706 |
| B14 | inactive: 0.712 |
| B15 | inactive: 0.656 |
| B16 | inactive: 1.14 |
| B17 | inactive: 1.09 |
| B18 | inactive: 1.01 |
| B19 | inactive: 0.741 |

| Binder | enrichment score |
| --- | --- |
| B20 | inactive: 2.55 |
| B21 | inactive: 2.86 |
| B22 | inactive: 0.735 |
| B23 | inactive: 0.558 |
| B24 | inactive: 0.657 |
| B25 | inactive: 0.654 |
| B26 | active: 11.3 |
| B27 | inactive: 0.448 |
| B28 | inactive: 0.644 |
| B29 | inactive: 0.707 |
| B30 | inactive: 0.564 |
| B31 | inactive: 0.648 |
| B32 | inactive: 0.665 |
| B33 | inactive: 1.06 |
| B34 | inactive: 1.04 |
| B35 | inactive: 0.564 |
| B36 | inactive: 0.456 |
| B37 | inactive: 0.405 |

biological target: SHP2 N-SH2 domain T42A; test: as above; settings: peptide library: pTyr-Var

| Binder | enrichment score |
| --- | --- |
| B1 | inactive: 0.253 |
| B2 | inactive: 0.697 |
| B3 | inactive: 2.99 |
| B4 | inactive: 2.56 |
| B5 | inactive: 2.11 |
| B6 | inactive: 0.789 |
| B7 | inactive: 3.15 |
| B8 | inactive: 0.819 |
| B9 | inactive: 0.361 |
| B10 | inactive: 0.602 |
| B11 | inactive: 0.54 |
| B12 | inactive: 0.428 |
| B13 | inactive: 0.563 |
| B14 | inactive: 0.535 |
| B15 | inactive: 0.895 |
| B16 | inactive: 1.02 |
| B17 | inactive: 0.844 |
| B18 | inactive: 0.819 |
| B19 | inactive: 0.566 |

| Binder | enrichment score |
| --- | --- |
| B20 | inactive: 2.58 |
| B21 | inactive: 2.73 |
| B22 | inactive: 0.801 |
| B23 | inactive: 0.861 |
| B24 | inactive: 0.476 |
| B25 | inactive: 0.677 |
| B26 | active: 13.5 |
| B27 | inactive: 0.595 |
| B28 | inactive: 0.494 |
| B29 | inactive: 0.58 |
| B30 | inactive: 0.502 |
| B31 | inactive: 1.65 |
| B32 | inactive: 0.611 |
| B33 | inactive: 1.23 |
| B34 | inactive: 1.11 |
| B35 | inactive: 0.422 |
| B36 | inactive: 0.35 |
| B37 | inactive: 0.393 |

biological target: SHP2 N-SH2 domain T52S; test: as above; settings: peptide library: pTyr-Var

| Binder | enrichment score |
| --- | --- |
| B1 | inactive: 0.281 |
| B2 | inactive: 0.85 |
| B3 | inactive: 2.72 |
| B4 | inactive: 2.82 |
| B5 | inactive: 2.57 |
| B6 | inactive: 0.799 |
| B7 | active: 4.04 |
| B8 | inactive: 0.935 |
| B9 | inactive: 0.74 |
| B10 | inactive: 0.776 |
| B11 | inactive: 0.573 |
| B12 | inactive: 0.499 |
| B13 | inactive: 0.62 |
| B14 | inactive: 0.53 |
| B15 | inactive: 0.705 |
| B16 | inactive: 1.25 |
| B17 | inactive: 0.792 |
| B18 | inactive: 0.992 |
| B19 | inactive: 0.843 |

| Binder | enrichment score |
| --- | --- |
| B20 | inactive: 3.09 |
| B21 | inactive: 2.18 |
| B22 | inactive: 0.956 |
| B23 | inactive: 0.572 |
| B24 | inactive: 0.516 |
| B25 | inactive: 0.764 |
| B26 | active: 13.3 |
| B27 | inactive: 0.555 |
| B28 | inactive: 0.466 |
| B29 | inactive: 0.813 |
| B30 | inactive: 0.538 |
| B31 | inactive: 0.614 |
| B32 | inactive: 0.558 |
| B33 | inactive: 0.919 |
| B34 | inactive: 1.09 |
| B35 | inactive: 0.419 |
| B36 | inactive: 0.641 |
| B37 | inactive: 0.461 |

biological target: SHP2 N-SH2 domain wild-type; test: as above; settings: peptide library: pTyr-Var

| Binder | enrichment score |
| --- | --- |
| B1 | inactive: 0.337 |
| B2 | inactive: 1.11 |
| B3 | inactive: 2.6 |
| B4 | inactive: 2.8 |
| B5 | inactive: 2.44 |
| B6 | inactive: 0.847 |
| B7 | inactive: 2.87 |
| B8 | inactive: 0.756 |
| B9 | inactive: 0.674 |
| B10 | inactive: 0.764 |
| B11 | inactive: 0.752 |
| B12 | inactive: 0.511 |
| B13 | inactive: 0.61 |
| B14 | inactive: 0.798 |
| B15 | inactive: 0.876 |
| B16 | inactive: 1.3 |
| B17 | inactive: 0.756 |
| B18 | inactive: 1 |
| B19 | inactive: 1.22 |

| Binder | enrichment score |
| --- | --- |
| B20 | inactive: 2.15 |
| B21 | inactive: 2.42 |
| B22 | inactive: 0.94 |
| B23 | inactive: 0.54 |
| B24 | inactive: 0.591 |
| B25 | inactive: 0.715 |
| B26 | active: 6.32 |
| B27 | inactive: 0.599 |
| B28 | inactive: 0.725 |
| B29 | inactive: 0.872 |
| B30 | inactive: 0.608 |
| B31 | inactive: 0.979 |
| B32 | inactive: 0.72 |
| B33 | inactive: 0.796 |
| B34 | inactive: 1.01 |
| B35 | inactive: 0.632 |
| B36 | inactive: 0.504 |
| B37 | inactive: 0.601 |
